Source: publication PMC12820563, “FoxP3 forms a head-to-head dimer in vivo and stabilizes its multimerization on adjacent microsatellites”
Some of the results follow.

target: T1, MBP-FoxP1dN (Mus musculus, UniProt P58462 326-579); assay: PD-seq (MBP pull-down with sequencing); 20 mM Tris-HCl pH 7.5, 100 mM NaCl, 1.5 mM MgCl2, 0.4 uM protein, 0.1 uM dsDNA library, 30 min, room temperature, amylose pull-down; high values mean tight binding; conditions: protein: recombinant; tags: His6-MBP; chain copies: 2; dsDNA, one strand shown
T1 sequence: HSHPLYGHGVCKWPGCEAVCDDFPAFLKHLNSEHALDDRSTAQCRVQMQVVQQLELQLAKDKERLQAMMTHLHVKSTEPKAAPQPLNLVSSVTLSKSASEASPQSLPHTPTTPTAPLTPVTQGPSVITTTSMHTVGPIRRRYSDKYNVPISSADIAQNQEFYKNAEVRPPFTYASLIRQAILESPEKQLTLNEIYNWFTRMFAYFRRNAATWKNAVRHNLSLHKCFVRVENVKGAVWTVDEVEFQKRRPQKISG
Summary of the method: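 In Tris pH 7.5 buffer with NaCl and MgCl2, 0.4 µM His6-MBP-tagged mouse FoxP3 or FoxP1 fragment lacking the N-terminus, from E. coli, met 0.1 µM Klenow-filled double-stranded degenerate DNA library for 30 min at room temperature. Three washes on amylose resin followed capture of the complexes, then proteinase K release of DNA, PCR barcoding and Illumina sequencing. Binding is taken as pooled-replicate reads-per-million enrichment of pull-down relative to input.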

Sequence | binding signal
GATGATTGTTCTCCCAGCTGATGAATTCGTACTGTCGAGTAAACAAATTTTCCTAATCTTTCTGTTCAAGCGCCATCTAC | 1.01 RPM ratio (pull-down/input)
GATGATTGTTCTCCCAGCTGATGAATTCCTCTTGTCGAGTAAACAAATTTTCCTAATCTTTCTGTTCAAGCGCCATCTAC | 0.791 RPM ratio (pull-down/input)
GATGATTGTTCTCCCAGCTGATGAATTGGAGCTATCGAGTAAACAAATTTTCCTAATCTTTCTGTTCAAGCGCCATCTAC | 0.836 RPM ratio (pull-down/input)
GATGATTGTTCTCCCAGCTGATGAATTCGATATGTCGAGTAAACAAATTTTCCTAATCTTTCTGTTCAAGCGCCATCTAC | 0.919 RPM ratio (pull-down/input)
GATGATTGTTCTCCCAGCTGATGAATTAAATACCTCGAGTAAACAAATTTTCCTAATCTTTCTGTTCAAGCGCCATCTAC | 0.999 RPM ratio (pull-down/input)
GATGATTGTTCTCCCAGCTGATGAATTGGAACATTCGAGTAAACAAATTTTCCTAATCTTTCTGTTCAAGCGCCATCTAC | 0.998 RPM ratio (pull-down/input)
GATGATTGTTCTCCCAGCTGATGAATTATAGTTGTCGAGTAAACAAATTTTCCTAATCTTTCTGTTCAAGCGCCATCTAC | 1.42 RPM ratio (pull-down/input)
GATGATTGTTCTCCCAGCTGATGAATTGGATGCGTCGAGTAAACAAATTTTCCTAATCTTTCTGTTCAAGCGCCATCTAC | 1.29 RPM ratio (pull-down/input)
GATGATTGTTCTCCCAGCTGATGAATTGATAAAATCGAGTAAACAAATTTTCCTAATCTTTCTGTTCAAGCGCCATCTAC | 1.14 RPM ratio (pull-down/input)
GATGATTGTTCTCCCAGCTGATGAATTGCGATTCTCGAGTAAACAAATTTTCCTAATCTTTCTGTTCAAGCGCCATCTAC | 1.1 RPM ratio (pull-down/input)
GATGATTGTTCTCCCAGCTGATGAATTAACAAGGTCGAGTAAACAAATTTTCCTAATCTTTCTGTTCAAGCGCCATCTAC | 1 RPM ratio (pull-down/input)
GATGATTGTTCTCCCAGCTGATGAATTGCCCGTGTCGAGTAAACAAATTTTCCTAATCTTTCTGTTCAAGCGCCATCTAC | 0.897 RPM ratio (pull-down/input)
GATGATTGTTCTCCCAGCTGATGAATTTATACATTCGAGTAAACAAATTTTCCTAATCTTTCTGTTCAAGCGCCATCTAC | 1.26 RPM ratio (pull-down/input)
GATGATTGTTCTCCCAGCTGATGAATTGAGGGTGTCGAGTAAACAAATTTTCCTAATCTTTCTGTTCAAGCGCCATCTAC | 0.852 RPM ratio (pull-down/input)
GATGATTGTTCTCCCAGCTGATGAATTTAAAATTTCGAGTAAACAAATTTTCCTAATCTTTCTGTTCAAGCGCCATCTAC | 0.973 RPM ratio (pull-down/input)
GATGATTGTTCTCCCAGCTGATGAATTAGGGCGATCGAGTAAACAAATTTTCCTAATCTTTCTGTTCAAGCGCCATCTAC | 0.834 RPM ratio (pull-down/input)
GATGATTGTTCTCCCAGCTGATGAATTTTTTAGCTCGAGTAAACAAATTTTCCTAATCTTTCTGTTCAAGCGCCATCTAC | 0.853 RPM ratio (pull-down/input)
GATGATTGTTCTCCCAGCTGATGAATTAAAGATCTCGAGTAAACAAATTTTCCTAATCTTTCTGTTCAAGCGCCATCTAC | 0.81 RPM ratio (pull-down/input)
GATGATTGTTCTCCCAGCTGATGAATTTCAAGACTCGAGTAAACAAATTTTCCTAATCTTTCTGTTCAAGCGCCATCTAC | 0.724 RPM ratio (pull-down/input)
GATGATTGTTCTCCCAGCTGATGAATTTCCAACATCGAGTAAACAAATTTTCCTAATCTTTCTGTTCAAGCGCCATCTAC | 1.01 RPM ratio (pull-down/input)
GATGATTGTTCTCCCAGCTGATGAATTGCGTGTGTCGAGTAAACAAATTTTCCTAATCTTTCTGTTCAAGCGCCATCTAC | 1.11 RPM ratio (pull-down/input)

Sequence | binding signal
GATGATTGTTCTCCCAGCTGATGAATTGTGTTAGTCGAGTAAACAAATTTTCCTAATCTTTCTGTTCAAGCGCCATCTAC | 1.58 RPM ratio (pull-down/input)
GATGATTGTTCTCCCAGCTGATGAATTAGAACAATCGAGTAAACAAATTTTCCTAATCTTTCTGTTCAAGCGCCATCTAC | 1.37 RPM ratio (pull-down/input)
GATGATTGTTCTCCCAGCTGATGAATTTCACTACTCGAGTAAACAAATTTTCCTAATCTTTCTGTTCAAGCGCCATCTAC | 0.818 RPM ratio (pull-down/input)
GATGATTGTTCTCCCAGCTGATGAATTAAAAACATCGAGTAAACAAATTTTCCTAATCTTTCTGTTCAAGCGCCATCTAC | 2.08 RPM ratio (pull-down/input)
GATGATTGTTCTCCCAGCTGATGAATTACTGTAATCGAGTAAACAAATTTTCCTAATCTTTCTGTTCAAGCGCCATCTAC | 1.63 RPM ratio (pull-down/input)
GATGATTGTTCTCCCAGCTGATGAATTACAACAGTCGAGTAAACAAATTTTCCTAATCTTTCTGTTCAAGCGCCATCTAC | 1.44 RPM ratio (pull-down/input)
GATGATTGTTCTCCCAGCTGATGAATTGTCCTTCTCGAGTAAACAAATTTTCCTAATCTTTCTGTTCAAGCGCCATCTAC | 0.998 RPM ratio (pull-down/input)
GATGATTGTTCTCCCAGCTGATGAATTTCGCACATCGAGTAAACAAATTTTCCTAATCTTTCTGTTCAAGCGCCATCTAC | 1.02 RPM ratio (pull-down/input)
GATGATTGTTCTCCCAGCTGATGAATTTCGCTTGTCGAGTAAACAAATTTTCCTAATCTTTCTGTTCAAGCGCCATCTAC | 0.952 RPM ratio (pull-down/input)
GATGATTGTTCTCCCAGCTGATGAATTTAGGCCATCGAGTAAACAAATTTTCCTAATCTTTCTGTTCAAGCGCCATCTAC | 0.918 RPM ratio (pull-down/input)
GATGATTGTTCTCCCAGCTGATGAATTAGACACTTCGAGTAAACAAATTTTCCTAATCTTTCTGTTCAAGCGCCATCTAC | 0.99 RPM ratio (pull-down/input)
GATGATTGTTCTCCCAGCTGATGAATTCGAGCAGTCGAGTAAACAAATTTTCCTAATCTTTCTGTTCAAGCGCCATCTAC | 0.833 RPM ratio (pull-down/input)
GATGATTGTTCTCCCAGCTGATGAATTCTGCATTTCGAGTAAACAAATTTTCCTAATCTTTCTGTTCAAGCGCCATCTAC | 1.12 RPM ratio (pull-down/input)
GATGATTGTTCTCCCAGCTGATGAATTAGGAAGCTCGAGTAAACAAATTTTCCTAATCTTTCTGTTCAAGCGCCATCTAC | 0.891 RPM ratio (pull-down/input)
GATGATTGTTCTCCCAGCTGATGAATTCGGGTGATCGAGTAAACAAATTTTCCTAATCTTTCTGTTCAAGCGCCATCTAC | 0.848 RPM ratio (pull-down/input)
GATGATTGTTCTCCCAGCTGATGAATTGGAAAGGTCGAGTAAACAAATTTTCCTAATCTTTCTGTTCAAGCGCCATCTAC | 0.797 RPM ratio (pull-down/input)
GATGATTGTTCTCCCAGCTGATGAATTTTGCGCCTCGAGTAAACAAATTTTCCTAATCTTTCTGTTCAAGCGCCATCTAC | 0.952 RPM ratio (pull-down/input)
GATGATTGTTCTCCCAGCTGATGAATTTCGGGCTTCGAGTAAACAAATTTTCCTAATCTTTCTGTTCAAGCGCCATCTAC | 0.748 RPM ratio (pull-down/input)
GATGATTGTTCTCCCAGCTGATGAATTAGTACGGTCGAGTAAACAAATTTTCCTAATCTTTCTGTTCAAGCGCCATCTAC | 0.956 RPM ratio (pull-down/input)
GATGATTGTTCTCCCAGCTGATGAATTTATACCGTCGAGTAAACAAATTTTCCTAATCTTTCTGTTCAAGCGCCATCTAC | 1.01 RPM ratio (pull-down/input)
GATGATTGTTCTCCCAGCTGATGAATTCATTCAGTCGAGTAAACAAATTTTCCTAATCTTTCTGTTCAAGCGCCATCTAC | 0.912 RPM ratio (pull-down/input)

Sequence | binding signal
GATGATTGTTCTCCCAGCTGATGAATTGATGGTATCGAGTAAACAAATTTTCCTAATCTTTCTGTTCAAGCGCCATCTAC | 1.05 RPM ratio (pull-down/input)
GATGATTGTTCTCCCAGCTGATGAATTAAGGCCCTCGAGTAAACAAATTTTCCTAATCTTTCTGTTCAAGCGCCATCTAC | 0.907 RPM ratio (pull-down/input)
GATGATTGTTCTCCCAGCTGATGAATTGATTCTTTCGAGTAAACAAATTTTCCTAATCTTTCTGTTCAAGCGCCATCTAC | 1.12 RPM ratio (pull-down/input)
GATGATTGTTCTCCCAGCTGATGAATTTATACTTTCGAGTAAACAAATTTTCCTAATCTTTCTGTTCAAGCGCCATCTAC | 1.19 RPM ratio (pull-down/input)
GATGATTGTTCTCCCAGCTGATGAATTCTGGTGCTCGAGTAAACAAATTTTCCTAATCTTTCTGTTCAAGCGCCATCTAC | 0.797 RPM ratio (pull-down/input)
GATGATTGTTCTCCCAGCTGATGAATTGGTTTAATCGAGTAAACAAATTTTCCTAATCTTTCTGTTCAAGCGCCATCTAC | 1.03 RPM ratio (pull-down/input)
GATGATTGTTCTCCCAGCTGATGAATTCGGTTGCTCGAGTAAACAAATTTTCCTAATCTTTCTGTTCAAGCGCCATCTAC | 0.897 RPM ratio (pull-down/input)
GATGATTGTTCTCCCAGCTGATGAATTTAGGCGGTCGAGTAAACAAATTTTCCTAATCTTTCTGTTCAAGCGCCATCTAC | 0.809 RPM ratio (pull-down/input)
GATGATTGTTCTCCCAGCTGATGAATTGACAGACTCGAGTAAACAAATTTTCCTAATCTTTCTGTTCAAGCGCCATCTAC | 1.05 RPM ratio (pull-down/input)
GATGATTGTTCTCCCAGCTGATGAATTGTGATTTTCGAGTAAACAAATTTTCCTAATCTTTCTGTTCAAGCGCCATCTAC | 1.39 RPM ratio (pull-down/input)
GATGATTGTTCTCCCAGCTGATGAATTACCGCCCTCGAGTAAACAAATTTTCCTAATCTTTCTGTTCAAGCGCCATCTAC | 0.793 RPM ratio (pull-down/input)
GATGATTGTTCTCCCAGCTGATGAATTGAGGTACTCGAGTAAACAAATTTTCCTAATCTTTCTGTTCAAGCGCCATCTAC | 0.848 RPM ratio (pull-down/input)
GATGATTGTTCTCCCAGCTGATGAATTGGAAGACTCGAGTAAACAAATTTTCCTAATCTTTCTGTTCAAGCGCCATCTAC | 0.821 RPM ratio (pull-down/input)
GATGATTGTTCTCCCAGCTGATGAATTCGTAGTCTCGAGTAAACAAATTTTCCTAATCTTTCTGTTCAAGCGCCATCTAC | 0.855 RPM ratio (pull-down/input)
GATGATTGTTCTCCCAGCTGATGAATTTTAGCGATCGAGTAAACAAATTTTCCTAATCTTTCTGTTCAAGCGCCATCTAC | 0.839 RPM ratio (pull-down/input)
GATGATTGTTCTCCCAGCTGATGAATTCGCCCCTTCGAGTAAACAAATTTTCCTAATCTTTCTGTTCAAGCGCCATCTAC | 0.821 RPM ratio (pull-down/input)
GATGATTGTTCTCCCAGCTGATGAATTTGATAGTTCGAGTAAACAAATTTTCCTAATCTTTCTGTTCAAGCGCCATCTAC | 0.948 RPM ratio (pull-down/input)
GATGATTGTTCTCCCAGCTGATGAATTTTGAGTGTCGAGTAAACAAATTTTCCTAATCTTTCTGTTCAAGCGCCATCTAC | 0.89 RPM ratio (pull-down/input)
GATGATTGTTCTCCCAGCTGATGAATTCGCGTTTTCGAGTAAACAAATTTTCCTAATCTTTCTGTTCAAGCGCCATCTAC | 1.01 RPM ratio (pull-down/input)
GATGATTGTTCTCCCAGCTGATGAATTGATCCTCTCGAGTAAACAAATTTTCCTAATCTTTCTGTTCAAGCGCCATCTAC | 0.828 RPM ratio (pull-down/input)
GATGATTGTTCTCCCAGCTGATGAATTAGATCACTCGAGTAAACAAATTTTCCTAATCTTTCTGTTCAAGCGCCATCTAC | 0.944 RPM ratio (pull-down/input)
